Measurements reported in US20230272055A1, “ANTI-MUTANT CALRETICULIN (CALR) ANTIBODIES AND USES THEREOF” (Incyte Corporation, priority 2021, published 2023).

B1: 170 (antibody)
heavy: EVQLVQSGAEVKKPGASVKVSCKVSGYTLTELSMQWVRQAPGKGLEWMGGFDPDDGETMYAEKFQGRLTVTEDTSTDTVYMELRSLTSEDTALYFCATSPGYDFFDYWGQGTLVTVSSASTKGPSVFPLAPSSKSTSGGTAALGCLVKDYFPEPVTVSWNSGALTSGVHTFPAVLQSSGLYSLSSVVTVPSSSLGTQTYICNVNHKPSNTKVDKRV[omitted - human IgG1 Fc with changes]
light: SYVLTQPPSVSVAPGQTARITCGGSDIGDEIVHWYQQKPGQAPVLVVYDDSDRPSGIPERFSGSNSGNTATLTISRAQAGDEADYYCQVWDSSSDHLIFGGGTKLTVLGQPKAAPSVTLFPPSSEELQANKATLVCLISDFYPGAVTVAWKADSSPVKAGVETTTPSKQSNNKYAASSYLSLTPEQWKSHRSYSCQVTHEGSTVEKTVAPTECS
B2: 73 (antibody)
heavy: EVQLVQSGAEVKKPGASVKVSCKVSGYTLTELSMQWVRQAPGKGLEWMGGFDPDEGETMYAEKFQGRLTVTEDTSTDTVYMELSSLRSEDTAVYFCATSPGYDFFDYWGQGTLVTVSSASTKGPSVFPLAPSSKSTSGGTAALGCLVKDYFPEPVTVSWNSGALTSGVHTFPAVLQSSGLYSLSSVVTVPSSSLGTQTYICNVNHKPSNTKVDKRV[omitted - human IgG1 Fc with changes]
light: SYVLTQPPSVSVAPGKTARITCTGTSSDVGGYNYVSWYQQKPGQAPVLVVYEVSNRPSGIPERFSGSNSGNTATLTISRVEAGDEADYYCQVWDSSNDLLIFGGGTKLTVLGQPKAAPSVTLFPPSSEELQANKATLVCLISDFYPGAVTVAWKADSSPVKAGVETTTPSKQSNNKYAASSYLSLTPEQWKSHRSYSCQVTHEGSTVEKTVAPTECS
B3: 124 (antibody)
heavy: EVQLVQSGAEVKKPGASVKVSCKVSGYTLTELSMQWVRQAPGKGLEWMGGFDPDDGETMYAEKFQGRLTVTEDTSTDTVYMELRSLTSEDTALYFCATSPGYDFFDYWGQGTLVTVSSASTKGPSVFPLAPSSKSTSGGTAALGCLVKDYFPEPVTVSWNSGALTSGVHTFPAVLQSSGLYSLSSVVTVPSSSLGTQTYICNVNHKPSNTKVDKRV[omitted - human IgG1 Fc with changes]
light: SYELTQPPSVSVAPGKTARITCGGDNIGSKSVHWYQQKPGQAPVLVVYDDSDRPSGIPERFSGSNSGNTATLTINRVEAGDEADYYCQVWDSSNDLLIFGGGTKLTVLGQPKAAPSVTLFPPSSEELQANKATLVCLISDFYPGAVTVAWKADSSPVKAGVETTTPSKQSNNKYAASSYLSLTPEQWKSHRSYSCQVTHEGSTVEKTVAPTECS
B4: 80 (antibody)
heavy: EVQLVQSGAEVKKPGASVKVSCKVSGYTLTELSMQWVRQAPGKGLEWMGGFDPDDGETMYAEKFQGRLTVTEDTSTDTVYMELSSLRSEDTAVYFCATSPGYDFFDYWGQGTLVTVSSASTKGPSVFPLAPSSKSTSGGTAALGCLVKDYFPEPVTVSWNSGALTSGVHTFPAVLQSSGLYSLSSVVTVPSSSLGTQTYICNVNHKPSNTKVDKRV[omitted - human IgG1 Fc with changes]
light: B3 light with E3V, D25N, N75S
B5: 71 (antibody)
heavy: EVQLVQSGAEVKKPGASVKVSCKVSGYTLTELSMQWVRQAPGKGLEWMGGFDPDAGETMYAEKFQGRLTVTEDTSTDTVYMELSSLRSEDTAVYFCATSPGYDFFDYWGQGTLVTVSSASTKGPSVFPLAPSSKSTSGGTAALGCLVKDYFPEPVTVSWNSGALTSGVHTFPAVLQSSGLYSLSSVVTVPSSSLGTQTYICNVNHKPSNTKVDKRV[omitted - human IgG1 Fc with changes]
light: B2 light
B6: 60 (antibody)
heavy: EVQLVQSGAEVKKPGASVKVSCKVSGYTLTELSMQWVRQAPGKGLEWMGGFDPDDGETMYAEKFQGRLTVTEDTSTDTVYMELSSLRSEDTAVYFCATSPGYDFFDYWGQGTLVTVSSASTKGPSVFPLAPSSKSTSGGTAALGCLVKDYFPEPVTVSWNSGALTSGVHTFPAVLQSSGLYSLSSVVTVPSSSLGTQTYICNVNHKPSNTKVDKRV[omitted - human IgG1 Fc with changes]
light: QSALTQPASVSGSPGQSITISCTGTSSDVGGYNYVSWYQQHPGKAPKLMIYEVSNRPSGVSNRFSGSNSGNTATLTINRVEAGDEADYYCQVWDSSNDLLIFGGGTKLTVLGQPKAAPSVTLFPPSSEELQANKATLVCLISDFYPGAVTVAWKADSSPVKAGVETTTPSKQSNNKYAASSYLSLTPEQWKSHRSYSCQVTHEGSTVEKTVAPTECS
B7: 175 (antibody)
heavy: EVQLVQSGAEVKKPGASVKVSCKVSGYTLTELSMQWVRQAPGKGLEWMGGFDPDDGETMYAEKFQGRLTVTEDTSTDTVYMELSSLRSEDTAVYFCATSPGYDFFDYWGQGTLVTVSSASTKGPSVFPLAPSSKSTSGGTAALGCLVKDYFPEPVTVSWNSGALTSGVHTFPAVLQSSGLYSLSSVVTVPSSSLGTQTYICNVNHKPSNTKVDKRV[omitted - human IgG1 Fc with changes]
light: B1 light

Biological target: T1, recombinant MBP-mutCALR Type 1 fusion protein (Homo sapiens, UniProt P27797, DEL40-40)
T1 construct: His6 (N); purchased Cepter (cepterbiopartners.com), custom made
Assay: Biacore SPR binding kinetics, Experiment 2 (parental and variant antibodies)
Details: Biacore 8K, 25° C., 1:1 binding model
Procedure: The amino acid sequence of recombinant MBP-mutCALR Type 1 fusion protein used in Experiments 1 and 2 is:
Experiment 2: Recombinant MBP-mutCALR Type 1 fusion protein was custom made at Cepter (cepterbiopartners.com). Data for the interaction of antibodies with recombinant mutCALR protein were collected at 25° C. on a Biacore 8K instrument (Cytiva, Marlborough, Mass.), and all reagents were obtained from Cytiva unless otherwise specified. The experiments were conducted using Tris-buffered saline (pH 7.2), 0.005% Surfactant P20, 1 mM CaCl2) as running buffer. To prepare the capture surfaces, anti-human IgG (Fc) antibodies (Product #29234600) was amine-coupled onto a CM4 chip (Product #BR100534) under standard conditions using an Amine Coupling Kit (Product #BR100050). Anti-mutCALR antibodies were captured onto the chip surface by injecting over flow cell 2 only at a flow rate of 10 μL/min for 30 seconds. […] Recombinant MBP-mutCALR Type 1 fusion protein was prepared at nominal concentrations of 0, 0.75, 2.22, 6.67, 20, and 60 nM and injected over both flow cells 1 and 2 for 150 seconds at a flow rate of 69 L/min, followed by a 230-second dissociation phase at the same flow rate. The kinetics parameters were obtained by applying 1:1 binding model to fit the data from multiple-cycle injection experiments using Biacore Insight Evaluation software.

ka [M⁻¹ s⁻¹]	kd [s⁻¹]	Molecule
4.27e+06	0.00179	B1
7.18e+06	0.00546	B2
1.23e+06	0.00128	B3
3.89e+06	0.00248	B4
4.63e+06	0.0107	B5
1.44e+06	0.00166	B6
4.53e+06	0.00631	B7

Test system: Ba/F3 cells transfected with MPL and mutCALR Type 1
Assay: Inhibition of cell proliferation, CellTiter-Glo 72 hours, mutCALR Type 1
Type: cell-based
Details: Ba/F3 engineered cells, high-throughput primary screening
Procedure: To test the ability of anti-mutCALR antibodies to inhibit cell proliferation, engineered Ba/F3 cells transfected with MPL and mutCALR Type 1 were plated at 5,000 cells per well in RPMI 1640+2% FBS, antibodies added, incubated for 72 hours, and followed by assessment of cell viability using the CellTiter-Glo Luminescent Cell Viability Assay (Promega, Madison, Wis.) and Top Count (Perkin Elmer, Boston, Mass.) or Pherastar (BMG Labtech, Ortenberg, Germany) for luminescence quantification. Anti-mutCALR antibodies inhibit mutCALR-induced oncogenic cell proliferation in a dose-dependent manner in both the Ba/F3 engineered cells (FIG. 2).
To test the ability of anti-mutCALR antibodies to inhibit oncogenic cell proliferation triggered by the Type 1 and Type 2 CALR mutations, Ba/F3 cells (DSMZ) were engineered to express MPL+mutCALR Type 1 (52 bp deletion, SEQ ID NO:320) or MPL+mutCALR Type 2 (5 bp insertion; SEQ ID NO:321). Cells were plated at 5,000 cells per well in RPMI 1640+2% FBS, antibodies added, incubated for 72 hours, and followed by assessment of cell viability using the CellTiter-Glo Luminescent Cell Viability Assay (Promega, Madison, Wis.) and Top Count (Perkin Elmer, Boston, Mass.) or Pherastar (BMG Labtech, Ortenberg, Germany) for luminescence quantification. Anti-mutant CALR antibodies show potency to inhibit mutCALR-induced oncogenic cell proliferation associated with both Type 1 and Type 2 mutations (FIG. 3).

IC50 inhibition of cell proliferation [ng/mL]	Molecule
1.9	B1
4	B3

Positions count from the first letter of the chain named.
